These are yes or no findings as the source states them, for the method shown. In cells and extracts the contact can be indirect. Some entries that bind do so weakly or less than the wild type. For some of these results: Sequences can lack the tags named with a protein.
T1: CMKLR1-BioID (human CMKLR1, chemerin receptor, fused to 3×(GGGGS)-linker, BioID2 and HA tag) (human) (UniProt Q99788)
T1 sequence: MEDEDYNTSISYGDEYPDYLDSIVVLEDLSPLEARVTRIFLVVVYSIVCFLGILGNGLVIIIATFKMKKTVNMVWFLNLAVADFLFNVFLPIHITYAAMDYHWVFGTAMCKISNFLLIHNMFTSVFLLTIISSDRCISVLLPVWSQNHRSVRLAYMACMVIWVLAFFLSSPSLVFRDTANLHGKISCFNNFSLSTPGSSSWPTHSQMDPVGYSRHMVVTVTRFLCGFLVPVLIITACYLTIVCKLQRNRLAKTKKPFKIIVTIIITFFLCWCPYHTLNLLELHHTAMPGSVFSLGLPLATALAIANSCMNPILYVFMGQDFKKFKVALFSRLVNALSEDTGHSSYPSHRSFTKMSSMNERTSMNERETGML

Sequences of proteins named here, by UniProt entry; tags and fusion partners are left off.
UniProt Q9NS67: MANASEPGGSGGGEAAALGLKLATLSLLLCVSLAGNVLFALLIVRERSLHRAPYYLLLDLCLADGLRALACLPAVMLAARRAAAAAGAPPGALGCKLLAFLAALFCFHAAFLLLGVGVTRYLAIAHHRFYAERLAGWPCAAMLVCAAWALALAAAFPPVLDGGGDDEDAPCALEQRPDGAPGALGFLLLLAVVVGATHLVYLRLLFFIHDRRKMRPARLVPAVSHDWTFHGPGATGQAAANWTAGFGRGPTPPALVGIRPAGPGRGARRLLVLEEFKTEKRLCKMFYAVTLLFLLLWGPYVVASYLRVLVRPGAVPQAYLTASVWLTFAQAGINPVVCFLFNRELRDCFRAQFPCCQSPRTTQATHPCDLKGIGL
UniProt Q9NS66: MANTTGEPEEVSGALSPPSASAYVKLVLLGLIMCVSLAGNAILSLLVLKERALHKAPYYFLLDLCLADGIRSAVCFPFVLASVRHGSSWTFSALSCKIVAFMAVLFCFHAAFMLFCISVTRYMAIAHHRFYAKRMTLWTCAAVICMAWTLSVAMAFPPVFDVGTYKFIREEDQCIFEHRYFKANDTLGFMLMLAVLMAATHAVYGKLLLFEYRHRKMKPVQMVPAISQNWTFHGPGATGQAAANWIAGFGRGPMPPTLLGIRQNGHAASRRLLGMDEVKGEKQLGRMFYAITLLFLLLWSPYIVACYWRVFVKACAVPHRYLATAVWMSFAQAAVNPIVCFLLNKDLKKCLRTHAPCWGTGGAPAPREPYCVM
UniProt P60893: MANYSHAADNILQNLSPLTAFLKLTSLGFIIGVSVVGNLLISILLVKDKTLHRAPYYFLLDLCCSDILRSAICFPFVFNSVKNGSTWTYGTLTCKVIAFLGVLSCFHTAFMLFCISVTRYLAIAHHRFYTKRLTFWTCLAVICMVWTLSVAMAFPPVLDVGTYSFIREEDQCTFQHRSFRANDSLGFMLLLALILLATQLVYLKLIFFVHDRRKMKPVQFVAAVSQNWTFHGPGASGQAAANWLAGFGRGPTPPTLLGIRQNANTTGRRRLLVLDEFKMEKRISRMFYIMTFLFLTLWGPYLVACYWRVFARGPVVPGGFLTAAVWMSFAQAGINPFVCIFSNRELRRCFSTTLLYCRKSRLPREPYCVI
UniProt O43491: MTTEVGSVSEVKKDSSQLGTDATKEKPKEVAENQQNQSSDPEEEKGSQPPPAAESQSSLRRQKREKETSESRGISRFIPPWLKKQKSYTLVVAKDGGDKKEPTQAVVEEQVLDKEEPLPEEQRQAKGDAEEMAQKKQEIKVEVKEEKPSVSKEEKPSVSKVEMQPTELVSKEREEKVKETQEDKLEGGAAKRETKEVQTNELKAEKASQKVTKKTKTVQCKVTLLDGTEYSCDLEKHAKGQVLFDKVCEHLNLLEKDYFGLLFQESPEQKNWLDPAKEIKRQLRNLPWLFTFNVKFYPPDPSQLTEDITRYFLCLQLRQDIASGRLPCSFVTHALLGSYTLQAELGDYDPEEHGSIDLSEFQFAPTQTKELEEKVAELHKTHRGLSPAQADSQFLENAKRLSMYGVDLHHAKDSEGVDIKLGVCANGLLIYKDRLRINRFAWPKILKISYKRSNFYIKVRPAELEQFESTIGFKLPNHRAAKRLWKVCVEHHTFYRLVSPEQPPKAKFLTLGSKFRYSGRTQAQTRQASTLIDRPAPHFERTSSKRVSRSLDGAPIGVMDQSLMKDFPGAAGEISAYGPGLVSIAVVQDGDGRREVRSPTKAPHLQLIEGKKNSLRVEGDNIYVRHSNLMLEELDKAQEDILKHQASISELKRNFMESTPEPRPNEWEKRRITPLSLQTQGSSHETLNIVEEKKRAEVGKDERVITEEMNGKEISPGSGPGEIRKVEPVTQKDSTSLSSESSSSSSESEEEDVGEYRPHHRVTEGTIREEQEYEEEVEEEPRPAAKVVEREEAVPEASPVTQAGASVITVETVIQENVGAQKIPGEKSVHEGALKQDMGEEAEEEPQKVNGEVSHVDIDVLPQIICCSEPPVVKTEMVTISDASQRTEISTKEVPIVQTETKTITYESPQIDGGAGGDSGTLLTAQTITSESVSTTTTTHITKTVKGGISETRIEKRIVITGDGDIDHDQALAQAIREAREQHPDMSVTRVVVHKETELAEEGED
UniProt Q9Y2J2: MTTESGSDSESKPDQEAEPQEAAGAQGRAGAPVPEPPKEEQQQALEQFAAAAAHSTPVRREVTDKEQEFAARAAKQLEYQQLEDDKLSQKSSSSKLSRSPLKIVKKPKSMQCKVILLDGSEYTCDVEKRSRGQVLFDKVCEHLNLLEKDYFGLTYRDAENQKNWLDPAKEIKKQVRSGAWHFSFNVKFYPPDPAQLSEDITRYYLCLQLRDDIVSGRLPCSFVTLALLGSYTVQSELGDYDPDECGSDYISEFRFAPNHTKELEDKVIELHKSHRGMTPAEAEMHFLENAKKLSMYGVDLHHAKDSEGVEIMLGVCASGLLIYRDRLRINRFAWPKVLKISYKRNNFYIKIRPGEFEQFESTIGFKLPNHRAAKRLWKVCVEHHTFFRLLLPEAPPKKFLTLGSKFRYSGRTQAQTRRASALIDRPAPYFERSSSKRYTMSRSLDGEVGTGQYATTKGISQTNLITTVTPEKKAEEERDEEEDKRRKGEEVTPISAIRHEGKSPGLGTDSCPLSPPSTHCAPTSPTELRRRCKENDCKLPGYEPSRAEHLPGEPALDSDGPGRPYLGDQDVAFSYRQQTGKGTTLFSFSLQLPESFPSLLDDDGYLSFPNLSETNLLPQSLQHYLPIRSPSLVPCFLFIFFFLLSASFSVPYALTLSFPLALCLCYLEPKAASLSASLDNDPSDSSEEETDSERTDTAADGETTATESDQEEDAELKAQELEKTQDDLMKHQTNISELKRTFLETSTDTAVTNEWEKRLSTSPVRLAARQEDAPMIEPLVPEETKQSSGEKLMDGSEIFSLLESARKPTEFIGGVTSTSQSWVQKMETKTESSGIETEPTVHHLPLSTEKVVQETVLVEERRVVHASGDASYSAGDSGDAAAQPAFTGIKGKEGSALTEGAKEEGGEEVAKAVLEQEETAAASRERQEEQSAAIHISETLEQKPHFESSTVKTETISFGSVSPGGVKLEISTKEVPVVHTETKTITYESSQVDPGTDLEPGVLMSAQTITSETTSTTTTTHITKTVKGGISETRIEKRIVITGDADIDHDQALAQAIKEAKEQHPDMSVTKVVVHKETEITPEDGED

B1: LRBA domain 1 (1–747 aa), C-terminally Myc-tagged (domain or fragment, UniProt P50851 1-747)
chain: MASEDNRVPSPPPTGDDGGGGGREETPTEGGALSLKPGLPIRGIRMKFAVLTGLVEVGEVSNRDIVETVFNLLVGGQFDLEMNFIIQEGESINCMVDLLEKCDITCQAEVWSMFTAILKKSIRNLQVCTEVGLVEKVLGKIEKVDNMIADLLVDMLGVLASYNLTVRELKLFFSKLQGDKGRWPPHAGKLLSVLKHMPQKYGPDAFFNFPGKSAAAIALPPIAKWPYQNGFTFHTWLRMDPVNNINVDKDKPYLYCFRTSKGLGYSAHFVGGCLIVTSIKSKGKGFQHCVKFDFKPQKWYMVTIVHIYNRWKNSELRCYVNGELASYGEITWFVNTSDTFDKCFLGSSETADANRVFCGQMTAVYLFSEALNAAQIFAIYQLGLGYKGTFKFKAESDLFLAEHHKLLLYDGKLSSAIAFTYNPRATDAQLCLESSPKDNPSIFVHSPHALMLQDVKAVLTHSIQSAMHSIGGVQVLFPLFAQLDYRQYLSDEIDLTICSTLLAFIMELLKNSIAMQEQMLACKGFLVIGYSLEKSSKSHVSRAVLELCLAFSKYLSNLQNGMPLLKQLCDHVLLNPAIWIHTPAKVQLMLYTYLSTEFIGTVNIYNTIRRVGTVLLIMHTLKYYYWAVNPQDRSGITPKGLDGPRPNQKEMLSLRAFLLMFIKQLVMKDSGVKEDELQAILNYLLTMHEDDNLMDVLQLLVALMSEHPNSMIPAFDQRNGLRVIYKLLASKSEGIRVQALKAMGYFL
B2: LRBA domain 2 (748–1864 aa), C-terminally Myc-tagged (domain or fragment, UniProt P50851 748-1864)
chain: KHLAPKRKAEVMLGHGLFSLLAERLMLQTNLITMTTYNVLFEILIEQIGTQVIHKQHPDPDSSVKIQNPQILKVIATLLRNSPQCPESMEVRRAFLSDMIKLFNNSRENRRSLLQCSVWQEWMLSLCYFNPKNSDEQKITEMVYAIFRILLYHAVKYEWGGWRVWVDTLSITHSKVTFEIHKENLANIFREQQGKVDEEIGLCSSTSVQAASGIRRDINVSVGSQQPDTKDSPVCPHFTTNGNENSSIEKTSSLESASNIELQTTNTSYEEMKAEQENQELPDEGTLEETLTNETRNADDLEVSSDIIEAVAISSNSFITTGKDSMTVSEVTASISSPSEEDASEMPEFLDKSIVEEEEDDDYVELKVEGSPTEEANLPTELQDNSLSPAASEAGEKLDMFGNDDKLIFQEGKPVTEKQTDTETQDSKDSGIQTMTASGSSAMSPETTVSQIAVESDLGQMLEEGKKATNLTRETKLINDCHGSVSEASSEQKIAKLDVSNVATDTERLELKASPNVEAPQPHRHVLEISRQHEQPGQGIAPDAVNGQRRDSRSTVFRIPEFNWSQMHQRLLTDLLFSIETDIQMWRSHSTKTVMDFVNSSDNVIFVHNTIHLISQVMDNMVMACGGILPLLSAATSATHELENIEPTQGLSIEASVTFLQRLISLVDVLIFASSLGFTEIEAEKSMSSGGILRQCLRLVCAVAVRNCLECQQHSQLKTRGDKALKPMHSLIPLGKSAAKSPVDIVTGGISPVRDLDRLLQDMDINRLRAVVFRDIEDSKQAQFLALAVVYFISVLMVSKYRDILEPQNERHSQSCTETGSENENVSLSEITPAAFSTLTTASVEESESTSSARRRDSGIGEETATGLGSHVEVTPHTAPPGVSAGPDAISEVLSTLSLEVNKSPETKNDRGNDLDTKATPSVSVSKNVNVKDILRSLVNIPADGVTVDPALLPPACLGALGDLSVEQPVQFRSFDRSVIVAAKKSAVSPSTFNTSIPTNAVSVVSSVDSAQASDMGGESPGSRSSNAKLPSVPTVDSVSQDPVSNMSITERLEHALEKAAPLLREIFVDFAPFLSRTLLGSHGQELLIEGTSLVCMKSSSSVVELVMLLCSQEWQN
B3: LRBA domain 4 (2577–2863 aa), C-terminally Myc-tagged (domain or fragment, UniProt P50851 2577-2863)
chain: SNTGMHRRQITDLLDQSIQVHSQCFVITSDNRYILVCGFWDKSFRVYSTDTGRLIQVVFGHWDVVTCLARSESYIGGNCYILSGSRDATLLLWYWNGKCSGIGDNPGSETAAPRAILTGHDYEVTCAAVCAELGLVLSGSQEGPCLIHSMNGDLLRTLEGPENCLKPKLIQASREGHCVIFYENGLFCTFSVNGKLQATMETDDNIRAIQLSRDGQYLLTGGDRGVVVVRQVSDLKQLFAYPGCDAGIRAMALSYDQRCIISGMASGSIVLFYNDFNRWHHEYQTRY

Key:
Assay in all cases: co-IP; HEK293T cells co-transfected with receptor-BioID2-HA (or BioID alone) and Myc-tagged candidate; lysis in 50 mM Tris-HCl pH 8.0, 1% NP40, 0.5% deoxycholate, 0.1% SDS, 150 mM NaCl, 5 mM EDTA; anti-HA on G-Sepharose beads, 4 °C, 4 h; anti-Myc blot; SREB1 with EPB41L2 also with 15 µM ID5217941 (no difference)
[1] = molecular target: T1, CMKLR1-BioID (human CMKLR1, chemerin receptor, fused to 3×(GGGGS)-linker, BioID2 and HA tag) (human)
[2] = molecular target: SREB1-BioID (human SREB1/GPR27 fused to 3×(GGGGS)-linker, BioID2 and HA tag) (human) (UniProt Q9NS67)
[3] = molecular target: SREB3-BioID (human SREB3/GPR173 fused to 3×(GGGGS)-linker, BioID2 and HA tag) (human) (UniProt Q9NS66)
[4] = molecular target: SREB2-BioID (human SREB2/GPR85 fused to 3×(GGGGS)-linker, BioID2 and HA tag) (human) (UniProt P60893)

| Molecule | binding [1] | binding [2] | binding [3] | binding [4] |
| --- | --- | --- | --- | --- |
| EPB41L2-Myc (full-length EPB41L2, C-terminally Myc-tagged) (from UniProt O43491 1-1005) | binds | binds | binds | binds |
| EPB41L3-Myc (full-length EPB41L3, C-terminally Myc-tagged) (from UniProt Q9Y2J2 1-1087) |  |  | binds |  |
| LRBA domain 3 (1865–2576 aa), C-terminally Myc-tagged (from UniProt P50851 1865-2576) (domain or fragment) | binds |  |  | binds |
| B1 |  |  |  | no binding |
| B2 |  |  |  | no binding |
| B3 |  |  |  | no binding |

Source: article PMC10670248
